Our source for the enrichment score values is the supplement of paper PMC10369915.

The other results are listed elsewhere or left out. Cut-off read from the data, not from the text of the source: active = 3.2 or more and inactive = the rest. Most of these values are background signal.
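Note: displayed peptides selected on beads carrying the immobilized SH2 domain, with library peptides lacking any tyrosine serving as negative controls.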

The first assay addresses SHP2 C-SH2 domain E139D. Put plainly: enrichment score (SH2-bound / input frequency) (ratio); bacterial display of known human phosphotyrosine sites (pTyr-Var adds point mutants) read by sequencing; higher = stronger binding; tyrosines were phosphorylated by kinases first. As to conditions: peptide library: pTyr-Var.
Regarding FPRTGYSVPFG [TGM1_Y370_L366P_YF], the enrichment score was inactive: 0.956.

FSGQVYRQRRK [TH_Y230_D227G]: the enrichment score was inactive: 0.188.

As for GCKKRYDKDKP [THAP1_Y14_N12K], the enrichment score was inactive: 0.285.

Regarding DLRTGYSVPFG [TGM1_Y370_Y365D_YF], the enrichment score is inactive: 1.

For the molecule EILLSDLRTGF [TGM1_Y365_Y365D_YF], the enrichment score is inactive: 1.13.

Consider FRVAGYKTQGG [TIA1_Y383_E384K_YF], for which the enrichment score is inactive: 0.794.

Take FGYPGYQCKHY [TIMP3_Y177_S179C]: the enrichment score was inactive: 1.48.

In the case of EILLSYLRTGY [TGM1_Y365], the enrichment score is inactive: 2.91.

TYEYKYPEGSS [TGM4_Y440]: the enrichment score was inactive: 0.812.

For the molecule RRGMPYGGHGD [TGM1_Y312_R315H], the enrichment score was inactive: 0.243.

As for GCKNHYDKDKP [THAP1_Y14_R13H], the enrichment score is inactive: 1.31.

Regarding FGFPGYQCKHF [TIMP3_Y177_S179C_YF], the enrichment score is inactive: 1.31.

As to RRGMPYGGLGD [TGM1_Y312_R315L], the enrichment score is inactive: 0.385.

Take TYQYKYPEGSS [TGM4_Y440_E437Q]: the enrichment score is inactive: 0.838.

Regarding GCKNRYDKGKP [THAP1_Y14_D17G], the enrichment score was inactive: 2.62.

Take HSSPVYVGRVV [TGM2_Y219_R214H]: the enrichment score was inactive: 0.958.

In the case of FGYPGYQSKHY [TIMP3_Y177], the enrichment score was inactive: 1.03.

With RSSPVYVGRVV [TGM2_Y219], the enrichment score is inactive: 0.905.

For SSQILYKLEQS [THADA_Y701_V699I], the enrichment score was inactive: 1.01.

Another assay concerns the target SHP2 C-SH2 domain wild-type. The description is as above. As to conditions: peptide library: pTyr-Var.
For the molecule FPRTGYSVPFG [TGM1_Y370_L366P_YF], the enrichment score was inactive: 0.987.

With FSGQVYRQRRK [TH_Y230_D227G], the enrichment score is inactive: 0.186.

Consider GCKKRYDKDKP [THAP1_Y14_N12K], for which the enrichment score is inactive: 0.243.

Consider DLRTGYSVPFG [TGM1_Y370_Y365D_YF], for which the enrichment score is inactive: 1.19.

In the case of EILLSDLRTGF [TGM1_Y365_Y365D_YF], the enrichment score is inactive: 0.828.

FRVAGYKTQGG [TIA1_Y383_E384K_YF]: the enrichment score was inactive: 0.681.

With FGYPGYQCKHY [TIMP3_Y177_S179C], the enrichment score is inactive: 1.34.

For the molecule EILLSYLRTGY [TGM1_Y365], the enrichment score is inactive: 2.53.

As to TYEYKYPEGSS [TGM4_Y440], the enrichment score is inactive: 0.826.

Turning to RRGMPYGGHGD [TGM1_Y312_R315H], the enrichment score is inactive: 0.288.

In the case of GCKNHYDKDKP [THAP1_Y14_R13H], the enrichment score is inactive: 1.32.

For the molecule FGFPGYQCKHF [TIMP3_Y177_S179C_YF], the enrichment score was inactive: 1.29.

For RRGMPYGGLGD [TGM1_Y312_R315L], the enrichment score was inactive: 0.367.

Regarding TYQYKYPEGSS [TGM4_Y440_E437Q], the enrichment score is inactive: 0.675.

Consider GCKNRYDKGKP [THAP1_Y14_D17G], for which the enrichment score was inactive: 2.12.

Turning to HSSPVYVGRVV [TGM2_Y219_R214H], the enrichment score was inactive: 0.886.

In the case of FGYPGYQSKHY [TIMP3_Y177], the enrichment score is inactive: 0.769.

In the case of RSSPVYVGRVV [TGM2_Y219], the enrichment score was inactive: 0.742.

Take SSQILYKLEQS [THADA_Y701_V699I]: the enrichment score was inactive: 0.864.

A further assay has as its target SHP2 N-SH2 domain L43F. The description is as above. As to conditions: peptide library: pTyr-Var.
With FPRTGYSVPFG [TGM1_Y370_L366P_YF], the enrichment score was inactive: 1.46.

For FSGQVYRQRRK [TH_Y230_D227G], the enrichment score was inactive: 0.385.

For GCKKRYDKDKP [THAP1_Y14_N12K], the enrichment score was inactive: 0.347.

For DLRTGYSVPFG [TGM1_Y370_Y365D_YF], the enrichment score was inactive: 1.71.

For EILLSDLRTGF [TGM1_Y365_Y365D_YF], the enrichment score is inactive: 1.07.

On to FRVAGYKTQGG [TIA1_Y383_E384K_YF], for which the enrichment score is inactive: 0.625.

Turning to FGYPGYQCKHY [TIMP3_Y177_S179C], the enrichment score is inactive: 1.34.

For the molecule EILLSYLRTGY [TGM1_Y365], the enrichment score is inactive: 2.62.

As for TYEYKYPEGSS [TGM4_Y440], the enrichment score is inactive: 0.586.

With RRGMPYGGHGD [TGM1_Y312_R315H], the enrichment score is inactive: 0.243.

Regarding GCKNHYDKDKP [THAP1_Y14_R13H], the enrichment score was inactive: 1.35.

As to FGFPGYQCKHF [TIMP3_Y177_S179C_YF], the enrichment score was inactive: 1.34.

RRGMPYGGLGD [TGM1_Y312_R315L]: the enrichment score was inactive: 0.295.

Turning to TYQYKYPEGSS [TGM4_Y440_E437Q], the enrichment score is inactive: 0.746.

For the molecule GCKNRYDKGKP [THAP1_Y14_D17G], the enrichment score was inactive: 2.14.

With HSSPVYVGRVV [TGM2_Y219_R214H], the enrichment score is inactive: 0.758.

With FGYPGYQSKHY [TIMP3_Y177], the enrichment score is inactive: 1.08.

For the molecule RSSPVYVGRVV [TGM2_Y219], the enrichment score is inactive: 1.07.

Take SSQILYKLEQS [THADA_Y701_V699I]: the enrichment score is inactive: 0.853.

The target in a further assay is SHP2 N-SH2 domain T42A. Described as above. As to conditions: peptide library: pTyr-Var.
Take FPRTGYSVPFG [TGM1_Y370_L366P_YF]: the enrichment score was inactive: 1.77.

As to FSGQVYRQRRK [TH_Y230_D227G], the enrichment score is inactive: 0.221.

Turning to GCKKRYDKDKP [THAP1_Y14_N12K], the enrichment score was inactive: 0.376.

DLRTGYSVPFG [TGM1_Y370_Y365D_YF]: the enrichment score is inactive: 1.43.

As to EILLSDLRTGF [TGM1_Y365_Y365D_YF], the enrichment score is inactive: 0.939.

Consider FRVAGYKTQGG [TIA1_Y383_E384K_YF], for which the enrichment score is inactive: 0.603.

Turning to FGYPGYQCKHY [TIMP3_Y177_S179C], the enrichment score is inactive: 1.22.

For EILLSYLRTGY [TGM1_Y365], the enrichment score was inactive: 2.54.

As to TYEYKYPEGSS [TGM4_Y440], the enrichment score is inactive: 0.592.

On to RRGMPYGGHGD [TGM1_Y312_R315H], for which the enrichment score was inactive: 0.288.

GCKNHYDKDKP [THAP1_Y14_R13H]: the enrichment score was inactive: 1.25.

FGFPGYQCKHF [TIMP3_Y177_S179C_YF]: the enrichment score was inactive: 1.32.

With RRGMPYGGLGD [TGM1_Y312_R315L], the enrichment score is inactive: 0.283.

Consider TYQYKYPEGSS [TGM4_Y440_E437Q], for which the enrichment score is inactive: 0.941.

With GCKNRYDKGKP [THAP1_Y14_D17G], the enrichment score was inactive: 2.26.

HSSPVYVGRVV [TGM2_Y219_R214H]: the enrichment score was inactive: 0.675.

Turning to FGYPGYQSKHY [TIMP3_Y177], the enrichment score was inactive: 0.774.

As for RSSPVYVGRVV [TGM2_Y219], the enrichment score was inactive: 0.655.

With SSQILYKLEQS [THADA_Y701_V699I], the enrichment score was inactive: 0.859.

Another assay deals with SHP2 N-SH2 domain T52S. The description is as above. As to conditions: peptide library: pTyr-Var.
As for FPRTGYSVPFG [TGM1_Y370_L366P_YF], the enrichment score was inactive: 1.34.

FSGQVYRQRRK [TH_Y230_D227G]: the enrichment score is inactive: 0.325.

Regarding GCKKRYDKDKP [THAP1_Y14_N12K], the enrichment score was inactive: 0.367.

For DLRTGYSVPFG [TGM1_Y370_Y365D_YF], the enrichment score was inactive: 1.2.

In the case of EILLSDLRTGF [TGM1_Y365_Y365D_YF], the enrichment score is inactive: 1.09.

For FRVAGYKTQGG [TIA1_Y383_E384K_YF], the enrichment score was inactive: 0.506.

As for FGYPGYQCKHY [TIMP3_Y177_S179C], the enrichment score was inactive: 1.27.

Regarding EILLSYLRTGY [TGM1_Y365], the enrichment score is inactive: 2.87.

For TYEYKYPEGSS [TGM4_Y440], the enrichment score is inactive: 0.72.

Take RRGMPYGGHGD [TGM1_Y312_R315H]: the enrichment score was inactive: 0.278.

GCKNHYDKDKP [THAP1_Y14_R13H]: the enrichment score was inactive: 1.26.

Take FGFPGYQCKHF [TIMP3_Y177_S179C_YF]: the enrichment score is inactive: 1.3.

Regarding RRGMPYGGLGD [TGM1_Y312_R315L], the enrichment score is inactive: 0.379.

In the case of TYQYKYPEGSS [TGM4_Y440_E437Q], the enrichment score was inactive: 0.611.

Consider GCKNRYDKGKP [THAP1_Y14_D17G], for which the enrichment score was inactive: 2.55.

As for HSSPVYVGRVV [TGM2_Y219_R214H], the enrichment score was inactive: 0.494.

Regarding FGYPGYQSKHY [TIMP3_Y177], the enrichment score was inactive: 0.911.

RSSPVYVGRVV [TGM2_Y219]: the enrichment score is inactive: 0.764.

On to SSQILYKLEQS [THADA_Y701_V699I], for which the enrichment score was inactive: 0.903.

A further assay concerns the target SHP2 N-SH2 domain wild-type. The assay is described as above. As to conditions: peptide library: pTyr-Var.
For the molecule FPRTGYSVPFG [TGM1_Y370_L366P_YF], the enrichment score is inactive: 0.691.

On to FSGQVYRQRRK [TH_Y230_D227G], for which the enrichment score is inactive: 0.282.

Turning to GCKKRYDKDKP [THAP1_Y14_N12K], the enrichment score is inactive: 0.353.

In the case of DLRTGYSVPFG [TGM1_Y370_Y365D_YF], the enrichment score was inactive: 0.779.

For the molecule EILLSDLRTGF [TGM1_Y365_Y365D_YF], the enrichment score is inactive: 1.09.

FRVAGYKTQGG [TIA1_Y383_E384K_YF]: the enrichment score was inactive: 0.661.

Regarding FGYPGYQCKHY [TIMP3_Y177_S179C], the enrichment score is inactive: 1.27.

As for EILLSYLRTGY [TGM1_Y365], the enrichment score was inactive: 2.38.

As to TYEYKYPEGSS [TGM4_Y440], the enrichment score is inactive: 0.887.

Take RRGMPYGGHGD [TGM1_Y312_R315H]: the enrichment score is inactive: 0.36.

As to GCKNHYDKDKP [THAP1_Y14_R13H], the enrichment score was inactive: 1.49.

FGFPGYQCKHF [TIMP3_Y177_S179C_YF]: the enrichment score is inactive: 1.22.

For the molecule RRGMPYGGLGD [TGM1_Y312_R315L], the enrichment score is inactive: 0.391.

For TYQYKYPEGSS [TGM4_Y440_E437Q], the enrichment score is inactive: 0.981.

As to GCKNRYDKGKP [THAP1_Y14_D17G], the enrichment score was inactive: 2.07.

HSSPVYVGRVV [TGM2_Y219_R214H]: the enrichment score is inactive: 0.899.

Consider FGYPGYQSKHY [TIMP3_Y177], for which the enrichment score was inactive: 0.808.

As for RSSPVYVGRVV [TGM2_Y219], the enrichment score was inactive: 0.862.

SSQILYKLEQS [THADA_Y701_V699I]: the enrichment score is inactive: 0.964.
